Whole data set: some 33,000 sequences, median “E-score (-0.5 to 0.5)” near -0.043, cut for the highest 2% near 0.37. Some of the results follow.
What follows are sequences tested against T1, Upc2 (UniProt Q12151) (assay: PBM E-score (8-mer binding enrichment) (E-score (-0.5 to 0.5)); higher = stronger / more preferred TF binding; most listed sequences are background and not binding sites). Details: protein concentration: 200 nM; construct: GST-full length.
T1 sequence: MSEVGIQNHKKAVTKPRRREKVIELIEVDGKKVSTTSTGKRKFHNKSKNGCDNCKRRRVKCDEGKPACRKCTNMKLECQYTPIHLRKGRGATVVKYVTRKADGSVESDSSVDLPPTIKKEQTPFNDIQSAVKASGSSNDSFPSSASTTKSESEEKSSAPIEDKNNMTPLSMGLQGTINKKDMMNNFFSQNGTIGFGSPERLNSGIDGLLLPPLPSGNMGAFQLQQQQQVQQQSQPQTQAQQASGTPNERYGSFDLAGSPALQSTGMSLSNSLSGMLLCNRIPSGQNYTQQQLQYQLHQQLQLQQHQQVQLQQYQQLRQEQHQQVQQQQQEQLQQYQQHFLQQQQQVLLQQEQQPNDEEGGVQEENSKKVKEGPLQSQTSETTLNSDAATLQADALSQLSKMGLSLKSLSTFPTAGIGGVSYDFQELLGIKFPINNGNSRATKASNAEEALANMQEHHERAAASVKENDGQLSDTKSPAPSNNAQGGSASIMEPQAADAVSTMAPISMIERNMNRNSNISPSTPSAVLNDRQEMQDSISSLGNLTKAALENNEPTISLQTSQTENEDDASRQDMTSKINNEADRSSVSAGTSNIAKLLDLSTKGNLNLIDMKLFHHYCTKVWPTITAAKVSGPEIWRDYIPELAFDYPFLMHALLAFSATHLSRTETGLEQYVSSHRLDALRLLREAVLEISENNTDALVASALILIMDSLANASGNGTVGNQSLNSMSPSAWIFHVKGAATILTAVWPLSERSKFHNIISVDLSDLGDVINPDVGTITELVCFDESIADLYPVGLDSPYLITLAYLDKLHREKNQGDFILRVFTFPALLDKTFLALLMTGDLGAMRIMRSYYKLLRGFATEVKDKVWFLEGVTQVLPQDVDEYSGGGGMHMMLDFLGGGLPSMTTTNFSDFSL
Summary of the method: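 Full-length yeast transcription factors or their DNA-binding domains, GST-tagged and expressed with PURExpress, were applied at about 100-200 nM to universal all-10-mer Agilent arrays. These arrays had been made double-stranded by primer extension on fresh or once-stripped slides. Detection used fluorescent anti-GST, normalisation used masliner, and E-scores for ungapped eight-base words pooled with reverse complements came from the Universal PBM Analysis Suite.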

Sequence | PBM E-score
CGCTCCCA | -0.0119
CCTAACTA | -0.161
CTACACAA | 0.104
GGCACCCA | -0.148
ATAGCCGG | -0.12
CCTCCATA | -0.0927
GCGTCGTA | 0.468
CCTGCAGA | -0.216
AACCGCCC | -0.0676
CACAATGC | -0.251
GTTTGTAA | 0.115
CCCAGATC | -0.135
ACATTCTG | -0.0694
CAAGAGTC | -0.103
GCATAACC | 0.00112
ATACCCGG | -0.0285
ATGGAAAC | -0.158
CACTGGGG | -0.271
CAGACAAA | 0.0499
GACTGCCC | -0.164
GATGGAGC | -0.112
AAGGCTAA | 0.0868
GAAAGCAC | 0.084
ATGAATCG | 0.157
GCAGTGGA | -0.123

Sequence | PBM E-score
ACACTTAG | -0.116
AGCGGGAC | -0.268
GATTACGA | 0.334
CGGCTGAG | -0.216
CTCCCGAG | 0.0107
CGAGTGCA | 0.143
AGCTTATC | -0.132
GCGGTGGA | 0.0832
AGGCGGAT | -0.0686
CCTTACTC | -0.0448
ATTGCGAC | 0.143
CACTTCTC | 0.0285
GGTGAGCA | -0.182
CATAGCAA | -0.235
CTCGTAAG | 0.43
GCATGTAC | 0.177
ACGCAGGC | -0.0845
AAGTCCTG | -0.298
TAAGGTGA | -0.056
CGAAGTAG | 0.00964
CTTTACGA | 0.471
CGGTACCA | -0.0953
ATATTAAA | 0.176
AAAAAGGA | -0.0656
TGTTAAAA | 0.0512

Sequence | PBM E-score
CCTGAAGC | -0.175
CTCAGGTA | -0.136
ACGGCTCC | 0.138
ATTAATAC | 0.0259
ACAACGAC | 0.258
GAGGCCTC | 0.0386
CCTAGGCA | -0.319
ACGTTAGC | 0.152
ATGTACTG | -0.177
CAGTAAAC | 0.271
CTAGATAC | 0.22
AATCGGAG | -0.185
CAAGACAA | -0.0401
AAAACTAT | 0.0662
AGTAAAGA | -0.212
AATTTATC | 0.131
ACCTGGAC | -0.117
GAACACCC | -0.0871
GCGACAGA | 0.0959
TTGTACAA | -0.0904
AGGTAAAA | -0.0257
GCAGCTGA | -0.0798
AATCTTTG | -0.00611
CTACAAAA | -0.00752
TGCTCCCA | -0.102

Sequence | PBM E-score
GGGTGCCA | -0.0881
CTAGGTCC | -0.178
AGCCACCG | -0.0677
ATAGCAGA | -0.181
AAGCCGCA | 0.00957
AGCCAAGC | -0.176
GCTCTCAA | 0.00868
GATTCCCC | -0.214
AACTGTTG | -0.239
GAAGTCGA | 0.0181
ATGGTTTG | -0.173
GAAAGGCC | -0.0769
GGGAACCA | -0.165
CTGGTACA | -0.0228
GGGGACTA | -0.213
CAAAACAG | -0.00045
ACAGCAAA | 0.0434
CGTGGAAA | 0.105
AGAGCATA | -0.0221
CGCAGCAC | -0.151
AATATGGG | -0.145
CTTGCTCA | -0.088
ACATACAT | 0.0735
GCCGGAAC | 0.068
ACATTTCA | -0.0769

Sequence | PBM E-score
ATAGTTCA | 0.0788
AATCCCGA | 0.00486
ATAATGCA | 0.0533
ACACCCGG | -0.0265
AGTTGCAT | -0.0885
CGTCTGCC | -0.0857
ATTCTTGC | -0.0884
GCTCGGAC | -0.027
AAGACCAG | -0.28
AACTACGC | 0.0049
GTCCACAC | 0.0279
GATATATC | -0.218
ACTGAGTA | -0.12
CTGGAATA | -0.0632
AACAGGCA | -0.00891
GTCACCCA | -0.224
CTTACACA | -0.0896
CGTTTAGA | 0.466
GAGCGCCA | -0.114
GTAGCAAC | 0.0694
CACGTTGG | -0.234
ACGGCGCG | 0.259
ACTCCATA | -0.144
ATAGCCGC | -0.209
CGTCGACC | 0.0651

Sequence | PBM E-score
CACCGCAG | -0.217
AAGGTTCT | -0.0176
CTATGTCC | -0.24
CCTGGTTC | -0.0512
AAGAAAAC | 0.104
ATATCGAA | 0.0025
ATACGGAC | 0.394
ACGATCTC | 0.237
CAGCGGGA | -0.319
AGAAAATC | 0.0457
ACGATTTC | 0.256
AGATCGAT | -0.212
ACACACCG | 0.157
AGTCTCTG | -0.0489
ATCAAGTC | -0.0287
ACCCACAG | -0.0427
CGCGAATA | 0.213
CAGAAATC | -0.119
CAGACGTC | -0.277
CCGTGAAC | 0.146
CGATTTTA | 0.116
GCCGCAAA | 0.0539
TATTAGAA | 0.0328
ACCCTAAA | 0.133
AGGAAAAA | -0.00064

Sequence | PBM E-score
CCCATGGG | -0.199
GTATACTA | 0.282
GCAGGTAC | -0.048
ACCATGGG | -0.262
ATGCTACC | -0.235
AAAGCGAT | 0.103
CGCTACAG | -0.105
ATTCGATA | 0.0034
GGAAAAAA | 0.0801
CAAGACGC | -0.147
CACCAAGG | -0.286
GAGAAAAA | -0.0102
TCCGGTAA | 0.0119
CGTAATGC | 0.15
AATACCTA | -0.101
TCAAGAAA | 0.047
AGAAGCAT | -0.165
GAGACATC | 0.0481
GACTACTA | -0.05
CATGCGGG | -0.214
CAAGCGTC | -0.159
AGGCGGGA | -0.277

— the supplement of paper PMC3334620
